Laboratory results from PubChem BioAssay AID485344 (National Center for Advancing Translational Sciences (NCATS), 2010).
Among all 340,000 compounds or so, about 6,900 (2%) were called active. Rule as the data show it: active = inhibition above about 30%; inactive = below that, where a call was filed. Only a part is listed here, and it is no random draw. Entries without a call were filed so in the source.

Each molecule was assayed against D(2) dopamine receptor (Homo sapiens) (UniProt P14416) (assay: HTS Assay for Allosteric Antagonists of the Human D2 Dopamine Receptor: Primary Screen for Antagonists). Settings: HEK293 TREx D2 cells, calcium flux, dopamine EC80; at 10 µM; stronger effect = higher value.
Procedure, shortened: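 Read-out: kinetic calcium fluorescence (1 cycle/s) in inducible HEK293 T-REx D2 cells after an EC80 dopamine addition that followed 180 s compound preincubation. Loss of the dopamine response indicates antagonism.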
Also: 0% is about no effect.

Chain of UniProt P14416 (P14416 whole entry, looked up): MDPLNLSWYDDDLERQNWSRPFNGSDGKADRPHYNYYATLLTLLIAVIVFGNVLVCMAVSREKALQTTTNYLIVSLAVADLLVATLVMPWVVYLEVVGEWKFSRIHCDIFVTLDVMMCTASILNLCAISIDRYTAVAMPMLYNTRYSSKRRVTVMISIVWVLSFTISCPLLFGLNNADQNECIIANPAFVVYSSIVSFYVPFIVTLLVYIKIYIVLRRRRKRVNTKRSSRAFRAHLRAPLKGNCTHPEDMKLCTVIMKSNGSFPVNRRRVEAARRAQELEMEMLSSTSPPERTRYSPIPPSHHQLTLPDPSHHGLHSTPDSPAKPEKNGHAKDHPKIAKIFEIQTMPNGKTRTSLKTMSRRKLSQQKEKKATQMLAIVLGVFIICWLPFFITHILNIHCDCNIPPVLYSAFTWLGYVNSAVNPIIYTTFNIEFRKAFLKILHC

| Compound | inhibition |
| --- | --- |
| CCOC(=O)c1ccc2c(c1)N(Cc1cccc([N+](=O)[O-])c1)C(=O)c1ccccc1S2 | 13.2% |
| O=C(Cn1c(=O)nc(-c2ccccc2)c2cc(Cl)ccc21)NCc1ccccc1 | 5.44% |
| Cn1nc(-c2ccc(OCC(=O)Nc3ccccc3)cc2)c2ccccc2c1=O | -3.18% |
| COc1ccc(-c2ccc(NS(=O)(=O)c3ccc(F)c(C(F)(F)F)c3)cc2)nn1 | -7.17% |
| Cc1ccc(CN2CCCn3nc(C(=O)NCCN(C)C)cc3C2=O)cc1 | 3.19% |
| COC(=O)c1c(NC(=O)CCCOc2ccc(C)cc2)sc2c1C(C(=O)OC)CC2 (stereo unspecified) | -12.1% |
| CCc1cccc(CC)c1NC(=O)c1cc(S(=O)(=O)N2CCc3ccccc32)cn1C | -21.3% |
| Cc1ccc(C)c(OCCSc2nc3ccccc3n2CC(=O)N2CCOCC2)c1 | 4.96% |
| CCOC(=O)c1c(C)[nH]c(C)c1S(=O)(=O)N1CCC(C(=O)NCc2ccccc2)CC1 | 7.01% |
| COc1ccc(NC(=O)Cc2coc3cc(C)cc(C)c23)c(OC)c1 | 4.91% |
| Cc1nc2ccn(Cc3ccco3)c(=O)c2cc1C(=O)N1CCN(c2ccccc2F)CC1 | 0.323% |
| COc1ccc2c(c1)c1c(c(=O)n(Cc3ccccc3)c(=O)n1Cc1cc(C)ccc1C)n2C | -3.28% |
| Cc1nn2c(=O)cc(COC(=O)c3ccccc3NC(=O)c3ccccc3C)nc2s1 | -5.92% |
| COc1cccc(OCc2nc3ccccc3n2CCOc2ccccc2)c1 | -2.78% |
| COc1ccc(/C=N/NC(=O)C(=O)NCc2cccnc2)cc1OC | active: 32.7% |
| CN(C(=O)c1nn(C)c2c1COc1ccccc1-2)c1cccc(C(F)(F)F)c1 | 14.7% |
| CCC(C)NC(=O)c1ccc2c(c1)N(Cc1cccc(Cl)c1)C(=O)c1ccccc1S2=O (stereo unspecified) | -7.49% |
| COCCNC(=O)c1c(NC(=O)Cc2coc3cc(C)ccc23)sc2c1CCCC2 | -18.2% |
| O=C(CN(c1cccc(Br)c1)S(=O)(=O)c1ccccc1)N1CCc2ccccc2C1 | 15.2% |
| COc1ccc(N2CCN(c3nc(-c4ccccc4F)nc4ccccc34)CC2)cc1 | 13.6% |
| COc1ccc(N2CCN(CCCNC(=O)c3cnn(-c4ccc(F)cc4)c3-n3cccc3)CC2)cc1 | 4.1% |
| Cc1cc(NC(=O)C2CCN(S(=O)(=O)Cc3ccccc3)CC2)ccc1-n1cnnn1 | active: 30.4% |
| CCOC(=O)c1cn(CC(=O)Nc2cccc(Cl)c2C)nn1 | 2% |
| CCOc1ccccc1NC(=O)C(NS(=O)(=O)c1cccc2nsnc12)c1ccccc1 (stereo unspecified) | 2.47% |

| Compound | inhibition |
| --- | --- |
| Cc1nnc(N2CCN(c3ccccc3F)CC2)c2c1nnn2Cc1ccc(F)cc1 | 13.6% |
| CCC(CC)c1nn2c(=O)cc(COc3ccc(NC(=O)c4ccc(Cl)cc4)cc3)nc2s1 | -4.59% |
| CC(Sc1oc(-c2ccco2)nc1S(=O)(=O)c1ccc(Br)cc1)c1ccccc1 (stereo unspecified) | 9.28% |
| COCCNc1nc(NCc2ccccc2OC)c2cnn(C)c2n1 | -13.1% |
| CCN(CC)C(=O)COc1ccc2oc(C)c(C(=O)OC(C)C)c2c1 | active: 30.8% |
| CCc1ccccc1N(CC)C(=O)c1cc2c(s1)-c1ccccc1OC2 | -5.5% |
| COc1ccc(OC)c(CCNC(=O)c2ccc(CS(=O)Cc3cccc(Cl)c3)o2)c1 (stereo unspecified) | -2.42% |
| Cc1ccccc1CSc1nc2nc(C)c(Cc3ccccc3)c(C)n2n1 | -17% |
| CCc1ccc(-n2nc(CO)c(C(=O)NCc3ccccn3)n2)cc1 | -0.634% |
| Cc1nc(-c2ccccc2)sc1-c1ccc(SCC(=O)Nc2ccc(F)cc2F)nn1 | 7.89% |
| Cc1oc2ncnc(N3CCCCC3)c2c1C(=O)NCC1CCN(Cc2ccc(F)cc2)CC1 | -0.243% |
| N#Cc1ccc(OCC(=O)NC(=O)NC2CCS(=O)(=O)C2)cc1 (stereo unspecified) | active: 39.2% |
| CCOC(=O)Cn1c(=O)cc(-c2ccccc2)c2c(C)nn(C)c21 | -6.04% |
| Nc1nc(SCc2ccc([N+](=O)[O-])cc2)c2ncn(C3OC(CO)C(O)C3O)c2n1 (stereo unspecified) | active: 36.3% |
| CCC(C)NC(=O)Cn1c(=O)n(-c2ccc(C)cc2)c(=O)c2ccccc21 (stereo unspecified) | -2.02% |
| CCOc1cccc(N2CCN(CCNC(=O)Nc3ccc(C)cc3)CC2)c1C | active: 43.9% |
| CCN(CCCNC(=O)c1cc2cc3cc(C)ccc3nc2s1)c1cccc(C)c1 | -16.3% |
| COc1ccc(/C=C(/C#N)c2nc(-c3ccc(-c4ccccc4)cc3)cs2)cc1 | 0.0602% |
| Cc1cccc(NC(=S)NC2CC3CCC(C2)N3Cc2ccco2)c1C (stereo unspecified) | active: 36.1% |
| Cc1ccc(C)c(NC(=O)C(=O)NCCc2csc(-c3ccc(C(F)(F)F)cc3)n2)c1 | 3.42% |
| CCOC(=O)CC(NCc1ccc(OC)c(OCC)c1)c1ccc(C)cc1 (stereo unspecified) | active: 60.6% |
| Cc1cnn(C(=O)c2cc(-c3ccccc3)nc3ccccc23)c1 | active: 54.9% |
| O=C(Nc1ccc(NC(=O)c2cccs2)cc1)c1ccc(Br)cc1 | 8.5% |
| CC(C)(C)C(=O)Nc1ccc2nc(SCC(=O)N3CCCC3)sc2c1 | -26% |

| Compound | inhibition |
| --- | --- |
| O=C(OCc1ccccc1Cl)c1ccc(-c2nnn(Cc3ccccc3)n2)cc1 | -7.14% |
| Cc1ccc(S(=O)(=O)c2cn(Cc3ccccc3)c3cc(N4CCCC4)c(F)cc3c2=O)cc1C | -11.2% |
| CCN(Cc1ccccc1)C(=O)CCNS(=O)(=O)c1ccc2c(c1)CC(C)N2C(C)=O (stereo unspecified) | 7.03% |
| COc1ccccc1CNS(=O)(=O)c1c(C)nc2sccn2c1=O | 2.53% |
| CCOC(=O)c1ccccc1NS(=O)(=O)c1c(-c2ccc(C)cc2)csc1C(=O)OC | 0.571% |
| COc1cccc(CNC(=O)CCc2c(C)c3cc4c(C)c(C)oc4cc3oc2=O)c1 | 15.3% |
| Cc1nc(-c2ccccc2)sc1CCNC(=O)c1ccco1 | -0.034% |
| COC(=O)c1ccc(CN(c2ccccc2OC)S(=O)(=O)c2cccs2)o1 | active: 36% |
| CCN(C(=O)Cn1ncc2c1-c1cc(C)ccc1OC2)c1cc(Cl)ccc1OC | 6.39% |
| CCN1CCCC1CNc1ncnc2c1[nH]c1ccc(F)cc12 (stereo unspecified) | active: 39.5% |
| CCc1ccccc1NC(=O)CSc1ncc2c(n1)-c1ccccc1N(Cc1ccc(C)cc1)S2(=O)=O | 8.58% |
| Cc1ccc(CN2CC[C@H]3C=CCc4cccc(c43)C2)cc1 | active: 56.7% |
| Cc1ccc(NC(=O)CN(C)S(=O)(=O)c2ccc3nc(C)sc3c2)c(C)c1 | -6.75% |
| CCN(CC(=O)Nc1c(F)cccc1F)C(=O)C1COc2ccccc2O1 (stereo unspecified) | active: 35.7% |
| COc1ccc(Cl)cc1NC(=O)CCc1c(C)nc2c(c1C)c(=O)n(C)c(=O)n2C | 5.02% |
| COc1cc(NC(=O)CSc2nc3nc(C)c(Cc4ccc(C)cc4)c(C)n3n2)cc(OC)c1 | 25.5% |
| CCCSCCCNC(=O)c1ccc(Cn2c(=O)c3cccn3c3cccnc32)cc1 | -0.279% |
| Cc1c(Cl)cccc1NC(=O)CN1C(=O)COc2ccc(S(=O)(=O)Nc3ccccc3)cc21 | -18.3% |
| CCCOC(=O)CSc1nnc2ccc3ccccc3n12 | -14.2% |
| O=C(CSc1nc2ccccc2nc1Cc1ccccc1)Nc1ccc2c(c1)OCO2 | 9.24% |
| COc1ccc(NC(=O)c2ccc3c(c2)CCN3S(=O)(=O)c2ccc(C)cc2)cc1Cl | 23.4% |
| CCOC(=O)c1cccc(NC(=O)C(C)n2c(C)c3cnn(-c4ccccc4)c(=O)c3c2C)c1 (stereo unspecified) | -14.5% |
| CCOc1ccccc1-n1cc2c(c1-c1ccc(OC)cc1)c(=O)n(C)c(=O)n2C | -13% |
| Cc1ccc(N(C)C(=O)C2CCN(S(=O)(=O)c3ccc4c(c3)CCCN4C(=O)C3CCC3)CC2)cc1 | -4.69% |

| Compound | inhibition |
| --- | --- |
| O=C1CC(c2ccccc2)Cc2[nH]c(=O)c(C(=O)Nc3cccc(Cl)c3)cc21 (stereo unspecified) | -0.135% |
| COC(=O)c1ccc(NC(=O)CN2CCN(c3ccc(Cl)cc3)CC2)cc1 | 3.05% |
| CCOC(=O)N1CCN(CCCc2ccccc2)CC1 | active: 34.2% |
| O=C1Cc2ccccc2Sc2c(OCCN3CCCCC3)cccc21 | active: 80.3% |
| COc1ccc(C(=O)CN2C(=O)N(c3ccc(C(C)=O)cc3)S(=O)(=O)c3ccccc32)cc1 | -13.6% |
| O=C(CSc1nc(-c2ccccc2)no1)N1CCCCC1 | -8.05% |
| Cc1ccccc1-c1nn2c(=O)cc(CN3CCN(C(=O)c4ccc(C(C)(C)C)cc4)CC3)nc2s1 | -4.81% |
| Cc1ccc(Cn2nnc(C(=O)Nc3ccc(F)c(F)c3)c2N)cc1 | 23.1% |
| Cc1nc2ccc(S(=O)(=O)N(C)CC(=O)Nc3ccc(Br)c(C)c3)cc2s1 | 2.28% |
| CCOc1ccc(C2CC(=O)c3c([nH]c(C(=O)OCc4ccccc4)c3C)C2)cc1 (stereo unspecified) | 6.87% |
| CCc1cccc(C)c1NC(=O)Cn1ccn(-c2ccc(F)cc2)c(=O)c1=O | 0.671% |
| COc1ccc(CCN2C(=O)c3oc4ccc(F)cc4c(=O)c3C2c2ccc(C(C)(C)C)cc2)cc1 (stereo unspecified) | -5.63% |
| COc1ccc(S(=O)(=O)N(CCc2ccccc2)CC(=O)Nc2cccc(OC)c2)cc1 | 15.3% |
| CCOC(=O)c1cccc(NC(=O)C2CCN(S(=O)(=O)c3ccc4c(c3)oc(=O)n4C)CC2)c1 | -16.3% |
| COc1ccccc1N1CCN(c2ncnc3c2cnn3C)CC1 | -4.24% |
| CCOc1ccc(C2c3cc(OCC)c(OCC)cc3CC(=O)N2c2ccc(C(=O)O)cc2)cc1OCC (stereo unspecified) | 0.879% |
| CCc1ccc(C(=O)COC(=O)C(Cc2c[nH]c3ccccc23)NC(=O)c2ccc(Br)cc2)cc1 (stereo unspecified) | -0.176% |
| CCN(CC)c1cc2c(cc1F)c(=O)c(S(=O)(=O)c1cc(C)ccc1C)cn2Cc1ccccc1 | 2.76% |
| CCOc1ccc(C2=NC(c3cccs3)=Nc3ccc(C(C)C)cc3N2)cc1 | -3.22% |
| CCOc1ccccc1-n1nnc(-c2nc(-c3ccccc3)no2)c1N | 4.62% |
| Cc1cccc(CC2C(=O)Nc3ccccc32)c1 (stereo unspecified) | -7.96% |
| CCOC(=O)c1c(NC(=O)c2ccc(S(=O)(=O)N(CCOC)CCOC)cc2)sc2c1CC(C)(C)NC2(C)C | 24.7% |
| Cc1cc(OC(=O)c2ccco2)c(Sc2ccccc2[N+](=O)[O-])c(=O)o1 | active: 33.8% |
| Cc1ccccc1N(C(=O)c1csnn1)C(C(=O)NC(C)(C)C)c1cccs1 (stereo unspecified) | active: 36.5% |
